According to the supplement of paper PMC10369915:
This is one part of the list. Rule as the data show it: active = 3.2 or more and inactive = the rest. Only a few entries rise above the background.

B1: MMUT_Y146_H143Y_YF (peptide)
chain: ATFRGYDSDNP
B2: MLH1_Y379_V384D (peptide)
chain: SSDKVYAHQMD
B3: MMUT_Y146_A141T (peptide)
chain: TTHRGYDSDNP
B4: MMAA_Y207_Y207C (peptide)
chain: RDMNACIRPSP
B5: MNS1_Y244_Y244H (peptide)
chain: NAMRRHIEEFQ
B6: MLH1_Y183_R182K (peptide)
chain: EVVGKYSVHNA
B7: MFSD8_Y134 (peptide)
chain: SHNKYYMLVAR
B8: MFSD8_Y63_M58L (peptide)
chain: LSIWPYLQKID
B9: MCFD2_Y138 (peptide)
chain: DGYIDYAEFAK
B10: MMP3_Y42_YF (peptide)
chain: FLENFYDLKKD
B11: MET_Y1234_Y1230D (peptide)
chain: MDDKEYYSVHN
B12: MORC2_Y100 (peptide)
chain: TQIGQYGNGLK
B13: MLPH_Y454_P451S (peptide)
chain: GDSVQYNRTTD
B14: MMP3_Y41_K45E_YF (peptide)
chain: KFLENYFDLEK
B15: MICA_Y194_G198S (peptide)
chain: QELRRYLKSSV
B16: MCFD2_Y135_Y135N (peptide)
chain: KNNDGNIDYAE
B17: MEGF10_Y1075 (peptide)
chain: ANRNVYEVEPT
B18: MET_Y1230_D1228H_YF (peptide)
chain: LARHMYDKEFF
B19: MCFD2_Y135_Y135N_YF (peptide)
chain: KNNDGNIDFAE
B20: MICA_Y194_K196E (peptide)
chain: QELRRYLESGV
B21: MET_Y1235_Y1230C (peptide)
chain: CDKEYYSVHNK
B22: MGAT4B_Y262_Q257H_YF (peptide)
chain: HSKGIYFVQLE
B23: MPG_Y75 (peptide)
chain: PYRSIYFSSPK
B24: MKI67_Y241_W238R (peptide)
chain: PFRKLYESVKK
B25: MC4R_Y41_S36Y_YF (peptide)
chain: FDGGCYEQLFV
B26: MOCS2_Y170_E168K (peptide)
chain: WKKKIYEESST
B27: MERTK_Y872_I871V (peptide)
chain: QADVVYVNTQL
B28: MET_Y1234_Y1230C_YF (peptide)
chain: MCDKEYFSVHN
B29: MEFV_Y741_A744S (peptide)
chain: ARSHIYTFSSC
B30: MET_Y1093_H1094R (peptide)
chain: HFGCVYRGTLL
B31: MMUT_Y364 (peptide)
chain: TEQDPYNNIVR
B32: MPG_Y75_YF (peptide)
chain: PFRSIYFSSPK
B33: MCCC1_Y41_G46E (peptide)
chain: QRTMKYTTATE
B34: MET_Y1234 (peptide)
chain: MYDKEYYSVHN
B35: MEP1A_Y472_R476G (peptide)
chain: FGVTLYPNSGE
B36: MET_Y1235 (peptide)
chain: YDKEYYSVHNK
B37: MCCC2_Y196_I200N (peptide)
chain: FGRTFYNQANM

Each binder was assayed against SHP2 C-SH2 domain E139D (assay: enrichment score (SH2-bound / input frequency) (ratio); bacterial display of known human phosphotyrosine sites (pTyr-Var adds point mutants) read by sequencing; higher = stronger binding; tyrosines were phosphorylated by kinases first). Conditions: peptide library: pTyr-Var.
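Also: displayed peptides selected on beads carrying the immobilized SH2 domain, with library peptides lacking any tyrosine serving as negative controls.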

Enrichment score, active:
B7 4.72

Enrichment score, inactive:
B1 0.964, B2 0.467, B3 0.628, B4 0.616, B5 0.884, B6 0.691, B8 1.46, B9 0.593, B10 1.39, B11 0.598, B12 1.11, B13 0.486, B14 1.78, B15 0.603, B16 0.392, B17 0.415, B18 1.14, B19 0.412, B20 0.796, B21 0.885, B22 1.91, B23 0.887, B24 0.616, B25 1.25, B26 0.613, B27 1.49, B28 0.908, B29 0.709, B30 1.14, B31 0.626, B32 0.96, B33 0.735, B34 1.09, B35 1.26, B36 0.842, B37 0.785

The binders below were run against SHP2 C-SH2 domain wild-type in the same assay as above. Conditions: peptide library: pTyr-Var.

Enrichment score, inactive:
B1 0.567, B2 0.471, B3 1.11, B4 0.566, B5 0.825, B6 0.844, B8 2.2, B9 0.362, B10 1.05, B11 0.515, B12 0.627, B13 0.571, B14 1.34, B15 0.511, B16 0.43, B17 0.376, B18 0.82, B19 0.563, B20 0.752, B21 1.2, B22 1.87, B23 0.799, B24 0.73, B25 1.48, B26 0.854, B27 1.39, B28 0.667, B29 0.824, B30 1.22, B31 0.504, B32 0.816, B33 0.52, B34 0.911, B35 1.09, B36 0.865, B37 0.935

Enrichment score, active:
B7 6.22

The binders below were run against SHP2 N-SH2 domain L43F in the same assay as above. Conditions: peptide library: pTyr-Var.

Enrichment score, active:
B7 3.28

Enrichment score, inactive:
B1 0.792, B2 0.428, B3 0.799, B4 0.544, B5 0.747, B6 0.714, B8 2.2, B9 0.645, B10 1.06, B11 0.658, B12 0.57, B13 0.507, B14 1.34, B15 0.468, B16 0.382, B17 0.332, B18 0.738, B19 0.563, B20 0.483, B21 0.843, B22 1.72, B23 0.924, B24 0.503, B25 1.18, B26 0.694, B27 1.73, B28 0.933, B29 0.719, B30 1.23, B31 0.532, B32 0.892, B33 0.903, B34 0.669, B35 1.29, B36 1.01, B37 0.712

Each binder was assayed against SHP2 N-SH2 domain T42A in the same assay as above. Conditions: peptide library: pTyr-Var.

Enrichment score, active:
B27 4.02

Enrichment score, inactive:
B1 1.08, B2 0.399, B3 0.69, B4 0.561, B5 0.735, B6 0.823, B7 3.08, B8 2.22, B9 0.488, B10 1.09, B11 0.847, B12 0.582, B13 0.371, B14 1.77, B15 0.576, B16 0.448, B17 0.411, B18 0.729, B19 0.499, B20 0.743, B21 0.862, B22 1.53, B23 1.14, B24 0.439, B25 1.01, B26 0.557, B28 0.667, B29 0.736, B30 1.07, B31 0.523, B32 0.757, B33 0.6, B34 0.939, B35 1.08, B36 0.58, B37 0.88

These binders were tested against SHP2 N-SH2 domain T52S in the same assay as above. Conditions: peptide library: pTyr-Var.

Enrichment score, inactive:
B1 0.563, B2 0.563, B3 0.628, B4 0.853, B5 0.753, B6 0.762, B7 3.08, B8 2.44, B9 0.287, B10 1.01, B11 0.811, B12 0.833, B13 0.477, B14 1.77, B15 0.644, B16 0.536, B17 0.499, B18 0.852, B19 0.67, B20 0.776, B21 0.81, B22 2.04, B23 1.08, B24 0.515, B25 1.07, B26 0.708, B27 1.17, B28 0.718, B29 0.673, B30 1.31, B31 0.521, B32 0.843, B33 0.573, B34 0.875, B35 1.16, B36 0.788, B37 0.782

These binders were tested against SHP2 N-SH2 domain wild-type in the same assay as above. Conditions: peptide library: pTyr-Var.

Enrichment score, inactive:
B1 0.873, B2 0.504, B3 0.657, B4 0.568, B5 1.06, B6 0.744, B7 3.07, B8 1.61, B9 0.838, B10 1.16, B11 0.956, B12 0.706, B13 0.498, B14 1.71, B15 0.644, B16 0.403, B17 0.543, B18 1.19, B19 0.811, B20 0.701, B21 1.02, B22 2.3, B23 0.667, B24 1.01, B25 1.62, B26 0.933, B27 1.12, B28 0.983, B29 0.831, B30 1.83, B31 0.592, B32 0.777, B33 0.8, B34 1.08, B35 1.43, B36 1.03, B37 1.57
